Changes are numbered by the printed parent chain. Results are given in words; binding and its absence hold for the method and conditions named. In cells and extracts the contact can be indirect. Some entries that bind do so weakly or less than the wild type. For some of these results: Sequences can lack the tags named with a protein.
B1: hnRNP R (endogenous, iPSC-derived neurons) (protein, UniProt O43390 1-633)
chain: MANQVNGNAVQLKEEEEPMDTSSVTHTEHYKTLIEAGLPQKVAERLDEIFQTGLVAYVDLDERAIDALREFNEEGALSVLQQFKESDLSHVQNKSAFLCGVMKTYRQREKQGSKVQESTKGPDEAKIKALLERTGYTLDVTTGQRKYGGPPPDSVYSGVQPGIGTEVFVGKIPRDLYEDELVPLFEKAGPIWDLRLMMDPLSGQNRGYAFITFCGKEAAQEAVKLCDSYEIRPGKHLGVCISVANNRLFVGSIPKNKTKENILEEFSKVTEGLVDVILYHQPDDKKKNRGFCFLEYEDHKSAAQARRRLMSGKVKVWGNVVTVEWADPVEEPDPEVMAKVKVLFVRNLATTVTEEILEKSFSEFGKLERVKKLKDYAFVHFEDRGAAVKAMDEMNGKEIEGEEIEIVLAKPPDKKRKERQAARQASRSTAYEDYYYHPPPRMPPPIRGRGRGGGRGGYGYPPDYYGYEDYYDDYYGYDYHDYRGGYEDPYYGYDDGYAVRGRGGGRGGRGAPPPPRGRGAPPPRGRAGYSQRGAPLGPPRGSRGGRGGPAQQQRGRGSRGSRGNRGGNVGGKRKADGYNQPDSKRRQTNNQQNWGSQPIAQQPLQQGGDYSGNYGYNNDNQEFYQDTYGQQWK
B2: Flag-myc-hnRNP R (wild type) (protein, UniProt O43390 1-633)
chain: B1 chain
B3: Flag-myc-hnRNP R AAA^414−416 (protein, UniProt O43390 1-633)
chain: B1 chain with K414A, K415A, R416A
B4: hnRNP R (endogenous, HEK293T), O43390 1-633 (protein)
chain: B1 chain
B5: Flag-myc-hnRNP R AAA^572−574 (protein, UniProt O43390 1-633)
chain: B1 chain with K572A, R573A, K574A
B6: Flag-myc-hnRNP R AAA^584−586 (protein, UniProt O43390 1-633)
chain: B1 chain with K584A, R585A, R586A

Amino acid sequences for entries named in this document (tags omitted). A change or cut given only in a name is not applied to a line headed by its entry.
UniProt A9QM74: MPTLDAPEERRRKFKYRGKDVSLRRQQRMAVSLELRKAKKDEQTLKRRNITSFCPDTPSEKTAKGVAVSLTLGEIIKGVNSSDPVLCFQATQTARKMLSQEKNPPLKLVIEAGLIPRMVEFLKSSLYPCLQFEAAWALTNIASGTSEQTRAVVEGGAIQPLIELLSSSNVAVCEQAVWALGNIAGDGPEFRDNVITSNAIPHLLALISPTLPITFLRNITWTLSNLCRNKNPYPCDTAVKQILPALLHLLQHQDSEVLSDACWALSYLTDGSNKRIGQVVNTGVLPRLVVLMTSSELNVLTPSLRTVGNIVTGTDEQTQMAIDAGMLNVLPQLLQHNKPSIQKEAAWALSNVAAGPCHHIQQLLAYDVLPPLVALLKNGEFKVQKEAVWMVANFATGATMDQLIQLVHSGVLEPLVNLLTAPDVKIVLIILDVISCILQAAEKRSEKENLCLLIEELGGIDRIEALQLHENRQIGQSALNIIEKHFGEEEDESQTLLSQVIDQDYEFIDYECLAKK

How the values were obtained:
[1] = molecular target: MBP-KPNA7 (wild type) (human) (UniProt A9QM74); test: pull-down; MBP and MBP-KPNA7 proteins on amylose resin, neuronal lysates from 4-week old 9429A hiPSC-derived neurons; western blot; only the target purified
MBP-KPNA7(P339A) (human) = MBP-KPNA7(P339A) (human) (UniProt A9QM74); test: as above
HA-KPNA7 (human) = HA-KPNA7 (human) (UniProt A9QM74); test: co-IP; anti-HA agarose, extracts of HEK293T and HEK293T(HA-KPNA7) cells transfected with Flag-hnRNP R constructs; Flag blot normalized to input
[2] = molecular target: hnRNP U (endogenous, HEK293T) (human (endogenous in HEK293T)), Q00839; test: co-IP; hnRNP U antibody on protein G beads, HEK293T extract; western blot for hnRNP R; conditions: remark: other sources report otherwise

Row | Binder | binding (HA-KPNA7 (human)) | further results
1 | B1 | – | binding [1]: binds; binding (MBP-KPNA7(P339A) (human)): binds
2 | B2 | binds | –
3 | B3 | binds | –
4 | B4 | – | binding [2]: no binding
5 | B5 | no binding | –
6 | B6 | no binding | –
